From PubChem BioAssay AID2675 (National Center for Advancing Translational Sciences (NCATS), 2010)
Where “and” joins values, the source holds several entries; their conditions need not be identical. Identical values can stand only once. Among all 280,000 compounds or so, about 100 (0.036%) were called active. This list was built around the results that the source calls inconclusive (neither active nor inactive); the mix of calls is not that of the screen. Calls come from the whole dose curve; as a rule, active = well fitted inhibition curve with a large enough effect in the signal ratio, with a control signal flat (not every such curve was filed as active); inconclusive = small, poorly fitted or top-dose-only effect, or effect the other way, or a change in a side signal; inactive = no such curve, though single readings can be large or run the other way; the % refers to the signal ratio. A potency beside an inconclusive call is a rough fit, not a confirmed value. A note “side channel” means that the fit belongs to a control or component signal, not to the main read-out.

Target: Muscleblind-like protein 1 (Homo sapiens) (UniProt Q9NR56)
Sequence of UniProt Q9NR56 (Q9NR56 whole entry, looked up): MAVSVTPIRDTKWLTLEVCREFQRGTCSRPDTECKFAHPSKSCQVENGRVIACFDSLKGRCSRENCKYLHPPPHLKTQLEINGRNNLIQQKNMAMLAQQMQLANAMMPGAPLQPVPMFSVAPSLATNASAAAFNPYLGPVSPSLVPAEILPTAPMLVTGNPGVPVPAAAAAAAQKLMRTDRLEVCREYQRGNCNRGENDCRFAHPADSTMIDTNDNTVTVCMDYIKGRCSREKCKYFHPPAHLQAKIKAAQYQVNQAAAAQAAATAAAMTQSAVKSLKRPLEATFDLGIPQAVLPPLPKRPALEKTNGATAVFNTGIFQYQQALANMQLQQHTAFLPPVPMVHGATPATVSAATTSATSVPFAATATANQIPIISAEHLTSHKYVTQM
Test: qHTS Assay for Inhibitors of MBNL1-poly(CUG) RNA binding
Details: TR-FRET MBNL1-His/biotin-(CUG)12 binding, 665/545 ratio; series mostly up to 57.5 µM
How it was run: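 TR-FRET readout: Ex 340 nm, 665/545 nm emission ratio, normalized to buffer-only (basal) and MBNL1-(CUG)12 controls. Complex of MBNL1-His with Biotin-(CUG)12, compounds 92 nM–58 uM, incubated 60 min at room temperature.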
Potency is the fitted concentration of half-maximal effect; tags give direction and shape of the fitted curve or compound fluorescence and quenching.

| Compound | Potency |
| --- | --- |
| Fc1ccc2c(c1)nnn2C1CCN(Cc2ccccc2)CC1 | inactive |
| O=C(Cn1nc(-c2ccccc2)ccc1=O)N1CCC2(CC1)OCCO2 | inconclusive: 31.6 µM [quencher, single point] |
| CC12CN3CC(C)(CN(C1)C31CCOCC1)C2=O | inconclusive: 63.1 µM [inhibitor, single point] |
| O=C1c2ccccc2-c2c1nc1c([n+]2[O-])CCCC1 | inconclusive: 2.24 µM [quencher, side channel, full curve] |
| CCOC(=O)Cn1cc([N+](=O)[O-])nc1[N+](=O)[O-] | inconclusive: 14.1 µM [quencher, side channel, partial curve] |
| O=C(O)c1ccc(/C=C/c2nc3ccccc3c(=O)n2-c2ccc(Br)cc2)cc1 | inconclusive: 28.2 µM [quencher, side channel, partial curve] |
| CCc1ccccc1N1C(=O)/C(=C/c2ccc(N3CCN(C)CC3)o2)C(=O)NC1=S | inconclusive: 8.91 µM [quencher, side channel, partial curve] |
| CC(C)CCOC(=O)c1c(N)n(CC2CCCO2)c2nc3ccccc3nc12 (configuration not stated) | inconclusive: 28.2 µM [quencher, side channel, partial curve] |
| CCc1ccc(C(=O)NCc2ccc(Cl)cc2Cl)cc1 | inconclusive: 0.708 µM [quencher, side channel, full curve, poor fit] |
| CC1N(C)c2cc(NC(=O)c3ccco3)c(P(=O)(Nc3ccc([N+](=O)[O-])cc3)N3CCOCC3)cc2C1(C)C (configuration not stated) | inconclusive: 25.1 µM [quencher, side channel, partial curve] |
| CCOC(=O)C1(CCc2ccccc2)CCN(Cc2ccco2)CC1 | inconclusive: 6.31 µM [fluorescent, side channel, single point] |
| COc1ccc(-c2cc(=O)oc3c(C)c(OC(C)C(=O)N4C[C@H]5C[C@@H](C4)c4cccc(=O)n4C5)ccc23)cc1 (some centres not stated) | inconclusive: 12.6 µM [quencher, side channel, partial curve] |
| Cc1cc(C)n(-c2ccc(NN=C(C#N)C#N)cc2)n1 | inconclusive: 6.31 µM [quencher, side channel, partial curve] |
| COC(=O)C(O)(c1ccc(NC(=S)NC(=O)c2ccc(Cl)cc2Cl)c(C)c1)C(F)(F)F (configuration not stated) | inactive |
| Cc1nc2ccccc2n1C1CCN(Cc2nnnn2CCc2ccccc2)CC1 | inactive |
| COC(=O)C1(C(=O)O)Cc2cc([N+](=O)[O-])ccc2N2CCCC21 (configuration not stated) | inconclusive: 10 µM [quencher, partial curve] |
| CCCCOCCCn1c(N)c(C(=O)OCCOC)c2nc3ccccc3nc21 | inconclusive: 22.4 µM [quencher, side channel, partial curve] |
| COc1ccc(N/N=C/c2c(O)n(-c3cccc(C)c3)c(=O)[nH]c2=O)cc1 | inconclusive: 15.8 µM [quencher, side channel, partial curve] |
| O=[N+]([O-])c1ccc(NCc2ccccc2)c2nonc12 | inconclusive: 2.51 µM [quencher, side channel, full curve] |

| Compound | Potency |
| --- | --- |
| O=c1oc2ccccc2n1CCCOc1ccccc1 | inconclusive: 5.62 µM [quencher, side channel, full curve, poor fit] |
| CCOc1ccc(-n2nc3c(=S)[nH]nc(C)c3c2C)cc1 | inconclusive: 3.55 µM [fluorescent, side channel, full curve] |
| Cc1[nH]c2c(Cl)cccc2c1CCN | inactive |
| CC1=C[C@@H]2c3cccc4[nH]cc(c34)C[C@H]2N(C)C1 | inconclusive: 11.2 µM [quencher, side channel, partial curve] |
| CN(C)c1ccc(/C=C/c2cc[n+](C)c3ccccc23)cc1 | inconclusive: 12.6 µM [quencher, side channel, partial curve] |
| CN1CCN(c2cc(N3CCCC3)c([N+](=O)[O-])cc2F)CC1 | inconclusive: 17.8 µM [quencher, partial curve] |
| O=[N+]([O-])c1ccc(N2CCNCC2)cc1NCC1CCCO1 (configuration not stated) | inconclusive: 8.91 µM [quencher, side channel, partial curve] |
| Cc1nc2ccc(Cl)cc2c(-c2ccccc2)c1C(=O)O | inconclusive: 10 µM [inhibitor, full curve, poor fit] |
| NC(N)=NC(=O)c1nc(Cl)c(N)nc1N | inconclusive: 17.8 µM [quencher, side channel, partial curve] and inconclusive: 14.1 µM [quencher, side channel, partial curve] |
| Nc1c(C(=O)NCc2ccco2)c2nc3ccccc3nc2n1CCN1CCOCC1 | inconclusive: 22.4 µM [quencher, side channel, single point] |
| Cc1ccc(Cn2nnnc2CN2CCC(n3nnc4cc(C)ccc43)CC2)cc1 | inactive |
| O=[N+]([O-])c1cccc2c([As](=O)(O)O)cccc12 | inconclusive: 14.1 µM [quencher, partial curve] |
| Cc1cc(Br)c(NC(=O)CN2CC=C(c3ccccc3)CC2)c(Br)c1 | inactive |
| CC(=O)NC(Cc1ccc(N(CCCl)CCCl)cc1)C(=O)NC(CC(C)C)C(=O)O (configuration not stated) | inconclusive: 79.4 µM [inhibitor, single point] |
| COc1ccc(OC)c(N2C(=O)NC(=O)/C(=C/c3ccc([N+](=O)[O-])s3)C2=O)c1 | inconclusive: 14.1 µM [quencher, side channel, partial curve] |
| Nc1ccc2ccc3cccc[n+]3c2c1 | inconclusive: 12.6 µM [quencher, side channel, partial curve] |
| CN1C(C(=O)N2CCC3(CC2)OCCO3)=CC(c2ccc(F)cc2)=NS1(=O)=O | inconclusive: 20 µM [quencher, side channel, partial curve] |
| CCC(C)n1c(O)c(C=NCCc2ccccc2)c(=O)[nH]c1=S (configuration not stated) | inactive |
